# ± gives the standard deviation of the averaged measurements. The full ranking holds about 33,000 sequences; the median of “E-score (dimensionless, -0.5 to 0.5)” is about -0.046, and the highest 2% start at about 0.36. This is one part of the list.
# System: T1, SpTbr T-box DNA-binding domain (GST fusion)
# T1 sequence: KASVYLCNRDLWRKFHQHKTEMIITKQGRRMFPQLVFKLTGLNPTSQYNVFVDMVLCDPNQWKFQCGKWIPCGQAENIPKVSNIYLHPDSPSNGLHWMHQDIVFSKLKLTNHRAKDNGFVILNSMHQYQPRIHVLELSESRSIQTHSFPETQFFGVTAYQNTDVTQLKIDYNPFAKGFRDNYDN
# Assay: PBM E-score of 8-mer (E-score (dimensionless, -0.5 to 0.5)); Tbr is Tbrain of the sea star Patiria miniata (Pm) or the sea urchin Strongylocentrotus purpuratus (Sp); higher = stronger binding preference; most listed sequences are background and not binding sites
# Settings: the construct has about 5 more residues each side
# Procedure: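 Universal protein-binding microarray (Agilent AMADID 016060, 60-bp probes with a 35-bp variable region) incubated with 200 nM GST-fused Strongylocentrotus purpuratus Tbr T-box DNA-binding domain (residues 362-554) in PBS pH 7.5. Scored for every ungapped 8-mer (given with its reverse complement) as E-score (range -0.5 to 0.5; >0.45 counts as bound) and Z-score of median probe intensity. Two replicate arrays (datasets 1 and 2).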
# 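Also: protein at 200 nM in PBS on universal double-stranded arrays.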
row,Sequence,PBM E-score of 8-mer
1,GGTCAACC,-0.138 ± 0.0015
2,GAGAGCAA,0.0426 ± 0.034
3,AGCTTTAA,-0.261 ± 0.057
4,GAATCGTA,-0.0254 ± 0.00061
5,AGATTACA,0.0164 ± 0.026
6,GCTAAACC,0.0155 ± 0.053
7,ACTAAGAC,0.065 ± 0.027
8,GTTCGCGA,0.389 ± 0.0052
9,GAGCCGCC,-0.069 ± 0.08
10,CTGTCCCA,0.0173 ± 0.11
11,CTCGTCAA,0.201 ± 0.0083
12,AGTTATAC,0.104 ± 0.067
13,ACCGAGAC,-0.075 ± 0.046
14,GCATGTCA,-0.0623 ± 0.024
15,CGTCGAAA,-0.154 ± 0.044
16,GCTTCAAC,-0.107 ± 0.059
17,GGCCGAAC,-0.234 ± 0.054
18,CCCTCCGG,0.0132 ± 0.028
19,CCAAAGAG,0.0924 ± 0.018
20,TCGTATAA,-0.166 ± 0.038
21,AAATAACC,-0.00923 ± 0.0017
22,AATTTTGG,-0.00148 ± 0.064

row,Sequence,PBM E-score of 8-mer
1,GAGGTGAA,0.198 ± 0.0028
2,CAACCGTG,0.25 ± 0.011
3,CCCACATC,0.224 ± 0.064
4,ACGAGTAC,0.00244 ± 0.049
5,AGAGGAGG,0.146 ± 0.035
6,ATACGCCA,0.0803 ± 0.057
7,CACGCCCA,0.252 ± 0.083
8,AAGGAATA,-0.0518 ± 0.013
9,CGGCGGGA,-0.0057 ± 0.021
10,ACCATGAT,0.11 ± 0.035
11,CTAGTCAA,-0.0107 ± 0.02
12,CGGCCAAG,-0.0792 ± 0.044
13,GGGTAGAC,-0.19 ± 0.027
14,TTGGCAAA,0.103 ± 0.11
15,CTCTTGCA,-0.0858 ± 0.0045
16,TAATGGCA,0.102 ± 0.061
17,ATCTCACC,0.422 ± 0.0058
18,ACCTTGAC,0.255 ± 0.067
19,ACATCCTC,0.094 ± 0.0043
20,CGCTCGCC,0.0162 ± 0.1
21,CTCCGCGA,0.204 ± 0.03
22,AGTCTCCA,-0.238 ± 0.062

row,Sequence,PBM E-score of 8-mer
1,GCTCAAGA,-0.106 ± 0.025
2,CTGTATTC,-0.0355 ± 0.039
3,GGTGTGTA,0.356 ± 0.008
4,CCGAATCC,-0.198 ± 0.088
5,CCGATGAG,-0.233 ± 0.028
6,CCATTGCC,-0.101 ± 0.038
7,ACGCTAAT,0.1008 ± 0.001
8,CAGGACGG,-0.228 ± 0.041
9,ATCTCAAT,-0.0549 ± 0.081
10,ACAGTGCT,0.0176 ± 0.048
11,ATTTAAAC,-0.138 ± 0.03
12,AGTCACTG,-0.103 ± 0.15
13,CTCCTTAA,-0.0575 ± 0.006
14,GGCTGGAC,-0.247 ± 0.031
15,ACGAACTC,0.0501 ± 0.029
16,ATATGTCG,0.139 ± 0.047
17,TAACCTTA,-0.0423 ± 0.045
18,AATATACA,-0.1667 ± 0.00086
19,CGTGTTCA,0.113 ± 0.067
20,GGTGGTGA,0.249 ± 0.011
21,CACTCACC,0.312 ± 0.019
22,AAGGCTCT,-0.246 ± 0.05

row,Sequence,PBM E-score of 8-mer
1,AGTCCCCC,-0.114 ± 0.047
2,AGAAGAAT,-0.124 ± 0.011
3,ATGTCCCC,-0.136 ± 0.0072
4,ATTACTTC,-0.144 ± 0.045
5,CCTTTGGA,-0.0643 ± 0.027
6,CTTATATC,-0.0662 ± 0.058
7,AGGATAGA,-0.22678 ± 2.8e-05
8,AGATCCCC,-0.123 ± 0.036
9,CCTAATCA,0.0677 ± 0.062
10,CTCTTAAA,-0.133 ± 0.084
11,AGTCTCGG,-0.192 ± 0.065
12,ATGGCATA,-0.123 ± 0.018
13,AGCCCATG,-0.216 ± 0.015
14,CGACTATA,-0.07898 ± 0.00039
15,CTATCCAC,0.0121 ± 0.048
16,AGCCCTAA,-0.175 ± 0.048
17,ACACACGA,-0.00198 ± 0.078
18,ACTGGATC,-0.145 ± 0.029
19,ATACTGCA,-0.122 ± 0.042
20,CGCCACTC,0.156 ± 0.061

# — the supplement of paper PMC4166925
